Laboratory results published in publication PMC12136788.
This is one part of the list.

B1: ENSG00000070961:be:win_451|CDS|ENSG00000070961|bound_else_gene|NA|bound_elsewhere_windowed (ssRNA)
RNA: GGGAGUUCUACAGUCCGACGAUCACUGGUUGGAUUGAAGGAGCUGCAAUCCUCUUGUCUGUAGUGUGUGUGGUGUUAGUAACAGCUUUCAAUGACUGGAGUAAGGAAAAACAGUUUAGAGGUUUGCAGAGCCGAAUUGAACAACAACAGAGGAUUGAGCAUCA
B2: chr1:157676480:157678709:-|three_prime_utr|ENSG00000160856|control|control|control (ssRNA)
RNA: GGGAGUUCUACAGUCCGACGAUCAAGCACUGUGUUAUUUUCACAGUGGAGACACGUGGCAAGGCAGGAGGGCCCUCAGCUCCUAGGGCUGUCGAAUAGAGGAGGAGAGAGAAAUGGUCUAGCCAGGGUUACAAGGGCACAAUCCAACAGAGGAUUGAGCAUCA
B3: chr7:2728618:2728646:-|3pUTR|ENSG00000146535|msi1_unk|total|mutant (ssRNA)
RNA: GGGAGUUCUACAGUCCGACGAUCUUUAAUUUCACUGUUAAUCCUUAUUGUCUUUUUUAUUAAGAUGUUGGAAAAGCAGGAGGCCGUUGUGCCUCAAUUAUUGCAAAAAUGUAACAAUAAAGUUCCUCAAAAUAAGAUCUGUUCCAACAGAGGAUUGAGCAUCA
B4: chrX:48578139:48578249:+|3pUTR|ENSG00000102317|msi1_unk|FALSE|overlapping (ssRNA)
RNA: GGGAGUUCUACAGUCCGACGAUCGUAUCAAGAACAUGAUUAUCCAGCGGUAUUUUCUAAUUCAGAUCAUCAAACUGAUUAUAUAGAAGAGUUGGCUUUAAAAUGUUUGCAAAUGUCUUUUUUUUUUUAAUACUGGAAGAAAAACAACAGAGGAUUGAGCAUCA
B5: chr4:68227913:68228072:-|CDS|ENSG00000185873|control|control|control (ssRNA)
RNA: GGGAGUUCUACAGUCCGACGAUCUGAUUCUGGUGGACCACUAGCUUACCCUGAUUCCAGAAAUAUCUGGCAUCUUGUUGGAAUAGUAAGCUGGGGUGAUGGAUGUGGUAAAAAGAAUAAGCCAGGUGUCUAUACUCGAGUGACCAACAGAGGAUUGAGCAUCA
B6: chr2:27433287:27433389:+|CDS|ENSG00000115216|unk|total|mutant (ssRNA)
RNA: GGGAGUUCUACAGUCCGACGAUCUUCCAGCAUGUCGGAGGGGGAGUCCCAGACAGUACUCCGCAGUGGCUCAGACCCAAAGGCCGAAUCCUCAUCUUCAGCUCCUGGCCUGACAUCAGUGUCACCUCCUGUGACCUCCACAACCAACAGAGGAUUGAGCAUCA
B7: chr22:38864602:38864703:-|3pUTR|ENSG00000183741|msi1|FALSE|bound_elsewhere (ssRNA)
RNA: GGGAGUUCUACAGUCCGACGAUCGCUGUGCUGCCAUGGGCCCCUCCCUCAGAAGCACGUUGGCAGGAGGCCGAUCAGAACCCUAGCGCCUUUGGUCCUAAGAAUGGGAGGCUGCCUUCCUUCCCAAUCUCCCUGCCAGGGCCCCAACAGAGGAUUGAGCAUCA
B8: chr4:2944067:2944171:-|CDS|ENSG00000087269|unk|FALSE|unique (ssRNA)
RNA: GGGAGUUCUACAGUCCGACGAUCGGCUUUGUCCCAGAGGUUUAUACCUGAGCUUAUUAAUUUUCUUCUUGGGAUUCUUUACAUAGCAACUCCAAACAAAGCAAGCCAAGGUGAGUUGAUUUGAGGGAGGUUCCUACAAAUAUGCAACAGAGGAUUGAGCAUCA
B9: chr1:13049810:13050369:-|CDS|ENSG00000274764|control|control|control (ssRNA)
RNA: GGGAGUUCUACAGUCCGACGAUCGCCCCGCGGGAGAGUUAUGGUGCUGAUGGUACUCUCUGCUGGAACAGAUUUGCUCAAAUUAGGGCUGAGCUGAUGAACAGAGUGAGGGACUUAAGGCACCCCAAGAGGAUCUUUUUCUGUCAACAGAGGAUUGAGCAUCA
B10: chr5:133955728:133955829:-|3pUTR|ENSG00000113583|msi1|FALSE|unique (ssRNA)
RNA: GGGAGUUCUACAGUCCGACGAUCUCAAUAUGUAAAUAUGUGAUUUGAACCAUGGUUGACUUACAAGUGUCACUACAGCUUUUUAGAAAACAUAGCCCUAAUAUAUGUUAAGCAGGACCCGGGUGAGCCAGUGGGCUUGCGCUUCAACAGAGGAUUGAGCAUCA
B11: chr12:111449306:111449407:+|3pUTR|ENSG00000111252|msi1|FALSE|unique (ssRNA)
RNA: GGGAGUUCUACAGUCCGACGAUCGCUGGCUUGGUGCCCUCCAAGCAUCUAAUGGCUUAUUAAAUUAUCCCACAAGUGGGUUUUAGGCUCCUUUUUUGAGCCAAAAUGGAAGCUGGGAAUCUGGUGCCAUAACUAAUGAGAAACCAACAGAGGAUUGAGCAUCA
B12: ENSG00000136451:be:win_4051|3pUTR|ENSG00000136451|bound_else_gene|NA|bound_elsewhere_windowed (ssRNA)
RNA: GGGAGUUCUACAGUCCGACGAUCGGUGGGCCACUGAAAAGGGGUACCGAAUAGGUUGUGUGAUGAAAUUCUGUGUCUUGGAACUGGAAUUGAGUUUCGAUGUUGAUGAACUGAUUCAACCAGGUGUUGAAGGCACGACAGCCACAACAGAGGAUUGAGCAUCA
B13: chr8:102207567:102207681:-|3pUTR|ENSG00000048392|unk|total|mutant (ssRNA)
RNA: GGGAGUUCUACAGUCCGACGAUCUAUUAAUUGCAAUGAUGUUGUAAUAAAAUACUCUCAUUUCCUUAAAAUAAUUGUGAUUCCCGGUCCCCGGAUCCCGAAUCCGAUCUUUGUAUUUUUAAUGCUCCGGGGAAGAAUAUAAGUCAACAGAGGAUUGAGCAUCA
B14: ENSG00000056097:stop:overlap|stop_codon|ENSG00000056097|stop_codon|NA|stop_codon (ssRNA)
RNA: GGGAGUUCUACAGUCCGACGAUCAAGUCACUAUCACACUGACAUCUCCAAUUAUUCGAGAAGAGAACAUGAGGGAAGGAGGCUAGAGCUAAUGGUCUGCAGUCCUGUGUGAUUAUCAUACGCAUUCUUCGAGACCUCUGUCAGCAACAGAGGAUUGAGCAUCA
B15: ENSG00000198589:be:win_2351|CDS|ENSG00000198589|bound_else_gene|NA|bound_elsewhere_windowed (ssRNA)
RNA: GGGAGUUCUACAGUCCGACGAUCAUAAUGUGCUGUUUGAGAUUCUUAUAGAACAGAUUGGUACUCAGGUGAUACAUAAACAGCAUCCAGAUCCUGAUUCUUCAGUGAAGAUACAAAACCCUCAGAUACUAAAAGUAAUUGCGACAACAGAGGAUUGAGCAUCA
B16: ENSG00000198589:be:win_9051|3pUTR|ENSG00000198589|bound_else_gene|NA|bound_elsewhere_windowed (ssRNA)
RNA: GGGAGUUCUACAGUCCGACGAUCGUAAAUGUAAUUUAAAACAUCUCAAUUAAGUCUGUCUAUCAAUAUUGUUCUUCAAGCAUGUUUUAGACCUAGAAAAGUAUGGUUUGGGGGAGGCUAUUUUAUUGUGUGGUUAGCACAAGGCAACAGAGGAUUGAGCAUCA
B17: chr1:180199467:180199568:+|3pUTR|ENSG00000116260|msi1|FALSE|unique (ssRNA)
RNA: GGGAGUUCUACAGUCCGACGAUCCACAGGAACAAUUUCCUCAAGGAGACAGUGGCAUGGAGCUUUGAAAGACGAGUAGGUGUUAGCAAGGAAAUAAGGAGGAACGGGGGUUACGGGCAGAGGAGAAAGCACAUGCCAAGUCAGCAACAGAGGAUUGAGCAUCA
B18: chr4:186588032:186588133:-|3pUTR|ENSG00000083857|msi1|total|mutant (ssRNA)
RNA: GGGAGUUCUACAGUCCGACGAUCUUUUUUUACUAUAACCAGGGUUUCAUUCUGUCUUUUUCCACUGAAGUGUGACAUUUUGUCCGUACAUUUCAGUGCCGUCAUUCAUUUCCCGCUGUACACCGGAUGAAGGAGAGAUCAGAUCAACAGAGGAUUGAGCAUCA
B19: chr1:111147767:111147876:+|CDS|ENSG00000134255|unk|FALSE|unique (ssRNA)
RNA: GGGAGUUCUACAGUCCGACGAUCAUUAAAUAAAUUGUUUCAGUUACCAACACCACCAUUGUCAAGACACCAACUAAAGCGGCUAGAAGAACACAGAUAUCAAAGUGCUGGACGGUCCCUGCUUGAGCCCUUAAUGCAAGGGUACAACAGAGGAUUGAGCAUCA
B20: chr11:118396625:118396726:+|3pUTR|ENSG00000110344|msi1|total|mutant (ssRNA)
RNA: GGGAGUUCUACAGUCCGACGAUCAACUUGACAAUGCUCCCCUGGCUUGCAGGAAAUUAUACUUAUUACCGCAUCACCAAGUUCCGAAAUCAUCACUAAUUUUCACCCUCUGUUGUCUCUUCAUAUUCUUCUUCCUUUUCCUAACAACAGAGGAUUGAGCAUCA
B21: chr10:110133424:110133536:+|CDS|ENSG00000148700|unk|total|mutant (ssRNA)
RNA: GGGAGUUCUACAGUCCGACGAUCGCAUGAUGUUGAAGAUGAGCUUGCUAAGCGAGUGAGCCGGUUAAGCACAAGUACAACCACCGAAAACAUCGAGAUUACUAUUAAGUCUCCAGAGAAAAUCGAAGAAGUCCUGUCACCUGACAACAGAGGAUUGAGCAUCA
B22: ENSG00000136451:be:win_1051|CDS|ENSG00000136451|bound_else_gene|NA|bound_elsewhere_windowed (ssRNA)
RNA: GGGAGUUCUACAGUCCGACGAUCCAACAACAACAACAUGUGACAAGCUGGCCAGGGAAGCAAGUAGAAACACUGAGACUGUGGGAAGAAGCUGUUAAAGCAAGGAAGAAAGAAGCUGCUAACCUGUGCCAAACCUCCACGGCUCAACAGAGGAUUGAGCAUCA

Biological target: MSI1 full-length (mouse, UniProt Q61474 1-362)
Sequence of UniProt Q61474 (Q61474 whole entry): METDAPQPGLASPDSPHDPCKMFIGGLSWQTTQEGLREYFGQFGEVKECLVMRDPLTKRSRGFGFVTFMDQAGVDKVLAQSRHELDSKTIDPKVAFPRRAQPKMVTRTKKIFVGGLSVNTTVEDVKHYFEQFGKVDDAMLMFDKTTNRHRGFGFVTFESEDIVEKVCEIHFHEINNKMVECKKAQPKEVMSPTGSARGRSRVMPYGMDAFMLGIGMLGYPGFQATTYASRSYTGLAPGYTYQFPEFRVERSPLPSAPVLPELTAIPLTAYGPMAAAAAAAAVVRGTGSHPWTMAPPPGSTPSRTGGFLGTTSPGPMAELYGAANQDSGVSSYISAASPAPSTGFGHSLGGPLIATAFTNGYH
Test: nsRBNS (natural sequence RNA bind-n-seq); RBNS binding buffer (assumed for nsRBNS): 25 mM Tris pH 7.5, 150 mM KCl, 3 mM MgCl2, 0.01% Triton X-100, 500 ug/ml BSA, 20 U/ml SUPERase-In, 4 C; UNK is unkempt and MSI1 is Musashi-1; names of the RNAs are library labels; protein concentration not given here; high values mean tight binding

How did the binding signal turn out when B1 was run?
The binding signal was 1.41 enrichment R.

How did the binding signal turn out when B2 was run?
Its binding signal is 0.827 enrichment R.

B3 was tested. Which binding signal did it give?
The binding signal was 0.343 enrichment R.

With B4 as the binder, how does the binding signal read?
The binding signal was 0.61 enrichment R.

How did the binding signal turn out when B5 was run?
The binding signal was 0.374 enrichment R.

For B6, which binding signal is on record?
Its binding signal is 0.489 enrichment R.

B7 was tested. Which binding signal did it give?
The binding signal was 0.571 enrichment R.

For B8, which binding signal is on record?
The binding signal was 0.634 enrichment R.

How did the binding signal turn out when B9 was run?
Its binding signal is 0.485 enrichment R.

Which binding signal does the source give for B10 here?
Its binding signal is 2.68 enrichment R.

For B11, which binding signal is on record?
The binding signal was 0.423 enrichment R.

B12 was tested. Which binding signal did it give?
The binding signal was 0.272 enrichment R.

For B13, which binding signal is on record?
The binding signal was 0.414 enrichment R.

Which binding signal does the source give for B14 here?
Its binding signal is 0.441 enrichment R.

For B15, which binding signal is on record?
The binding signal was 1.48 enrichment R.

For B16, which binding signal is on record?
The binding signal was 3.05 enrichment R.

For B17, which binding signal is on record?
The binding signal was 1.07 enrichment R.

How did the binding signal turn out when B18 was run?
Its binding signal is 0.482 enrichment R.

Which binding signal does the source give for B19 here?
The binding signal was 1.39 enrichment R.

How did the binding signal turn out when B20 was run?
Its binding signal is 1.46 enrichment R.

B21 was tested. Which binding signal did it give?
Its binding signal is 0.233 enrichment R.

How did the binding signal turn out when B22 was run?
The binding signal was 0.491 enrichment R.
